PubChem BioAssay AID488969 (Vanderbilt High Throughput Screening Facility, 2010)
Whole data set: some 110,000 compounds, median “z-score” near -0.1, cut for the highest 2% near 2. This is one part of the list. Activity calls are given as the source filed them.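 How the source made its calls: active means z-score in the third read window above 3 or below -3; inactive means the rest.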

These molecules were tested against Metabotropic glutamate receptor 8 (Rattus norvegicus) (UniProt P70579) (assay: rat mGluR8 modulators via GIRK flux, primary screen, cell-based, thallium flux, HTS (AID 488969)). Conditions: HEK293 rat mGluR8, GIRK (G protein-gated inwardly rectifying potassium channel) thallium flux, FluoZin2; at 10 µM; stronger effect = higher value; submaximal glutamate (EC20) added with thallium.
UniProt P70579, sequence (P70579 whole entry, looked up): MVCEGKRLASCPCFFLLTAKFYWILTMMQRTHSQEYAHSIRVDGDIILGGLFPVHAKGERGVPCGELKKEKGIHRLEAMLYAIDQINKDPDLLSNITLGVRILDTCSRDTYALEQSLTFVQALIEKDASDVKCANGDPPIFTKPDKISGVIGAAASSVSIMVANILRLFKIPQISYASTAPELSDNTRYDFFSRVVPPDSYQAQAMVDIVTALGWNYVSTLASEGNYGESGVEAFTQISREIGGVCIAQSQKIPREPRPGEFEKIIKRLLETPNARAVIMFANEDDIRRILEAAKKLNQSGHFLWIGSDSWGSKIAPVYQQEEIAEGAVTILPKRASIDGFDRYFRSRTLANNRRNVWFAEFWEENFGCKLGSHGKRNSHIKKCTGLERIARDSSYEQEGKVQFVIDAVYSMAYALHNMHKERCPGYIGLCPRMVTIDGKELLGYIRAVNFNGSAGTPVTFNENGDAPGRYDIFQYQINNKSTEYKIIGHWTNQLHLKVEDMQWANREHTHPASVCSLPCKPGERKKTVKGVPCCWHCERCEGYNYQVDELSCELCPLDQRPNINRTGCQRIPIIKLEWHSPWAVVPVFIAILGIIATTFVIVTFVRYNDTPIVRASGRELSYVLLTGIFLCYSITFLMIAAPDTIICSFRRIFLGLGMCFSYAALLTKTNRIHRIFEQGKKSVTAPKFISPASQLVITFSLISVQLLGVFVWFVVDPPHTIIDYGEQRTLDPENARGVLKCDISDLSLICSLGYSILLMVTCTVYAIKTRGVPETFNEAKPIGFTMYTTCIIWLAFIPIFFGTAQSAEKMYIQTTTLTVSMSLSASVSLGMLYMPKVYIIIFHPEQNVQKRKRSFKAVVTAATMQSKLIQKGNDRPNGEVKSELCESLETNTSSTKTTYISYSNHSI

Row | Structure (SMILES) | z-score
1 | CC(C)CNC(=O)CSc1nnc(-c2ccccn2)n1Cc1ccccc1 | -0.0283
2 | Cc1ccccc1C(=O)Nc1ccccc1C(=O)N/N=C\c1ccco1 | active: 5.6
3 | Cc1cccc(Nc2nnc(SCC3CCCCO3)s2)c1 (centres undefined) | 0.952
4 | COc1ccc(C(C)(C)C)cc1NC(=O)C1CC=CCC1C(=O)O (centres undefined) | -0.209
5 | O=C(Nc1cc(C(F)(F)F)ccc1N1CCOCC1)c1n[nH]c(=O)c2ccccc12 | -0.0828
6 | c1ccc(Cc2nnc3sc(-c4ccc5c(c4)OCCO5)nn23)cc1 | -1.22
7 | CC1CCCCC1NC(=O)CCn1c(=O)oc2ccccc21 (centres undefined) | 0.309
8 | CCn1c(SCC(=O)C(C)(C)C)nnc1-c1cccnc1 | -0.265
9 | CCc1cc2c(N[C@@H](C)C(=O)O)ncnc2s1 | 0.00833
10 | Cc1nc2ccc(S(=O)(=O)NCC(=O)NCc3ccc4c(c3)OCO4)cc2s1 | -0.345
11 | Cc1nc(-n2nnc3ccccc32)c2c3c(sc2n1)CCCC3 | -0.217
12 | CCC1c2ccc(C)n2CCN1C(=O)Nc1ccccc1C(=O)OC (centres undefined) | active: -3.2
13 | O=C(O)C1C2C=CC(C2)C1C(=O)OCC1CCCO1 (centres undefined) | 0.454
14 | C=CCSc1nc2sc(C)c(C)c2c(=O)n1CC=C | -0.28
15 | Cc1cc(Oc2ccccc2)nc(SCC(=O)Nc2ccc(Cl)cc2Cl)n1 | 0.542
16 | O=C(C1CCCN(CCCc2ccccc2)C1)N1CCCCCC1 (centres undefined) | 0.123
17 | CCOc1ccccc1N1C(=O)c2ccc(C(=O)Nc3cccnc3)cc2C1=O | 1.04
18 | Cn1nnnc1SCC(=O)Nc1ccc(N2CCOCC2)cc1 | -0.367
19 | CCOCCn1c(SCc2c(F)cccc2Cl)nc2c1c(=O)[nH]c(=O)n2C | 0.197
20 | O=C(CCN1C(=O)c2ccccc2S1(=O)=O)N1CCN(c2ccccc2)CC1 | -0.363
21 | CCN(CC)S(=O)(=O)c1ccc(Cl)c(C(=O)Nc2ccc(Cl)cc2[N+](=O)[O-])c1 | -1.25
22 | O=C(NN1CCOCC1)c1cc(S(=O)(=O)Nc2cccc(C(F)(F)F)c2)ccc1Cl | -0.144

Row | Structure (SMILES) | z-score
23 | COc1cccc(CNC(=O)CCCCCn2c(=S)[nH]c3ccc(N4CCOCC4)cc3c2=O)c1 | 0.141
24 | COc1cc(/C=N/NC(=O)C(=O)/C=C2\NC3(CCCC3)Cc3ccccc32)ccc1O | -1.03
25 | COc1ccc(/C=N/N(C(C)=O)c2nc(-c3ccc(C)cc3)cs2)cc1 | 0.128
26 | O=C(Cn1cnc2ccccc2c1=O)NCCC(=O)N1CCN(Cc2ccccc2)CC1 | 0.259
27 | CN1C(=O)/C(=C/c2ccc3c(c2)OCO3)N=C1c1ccccc1 | 0.393
28 | O=C(Nc1ccccn1)C12CC3CC(C1)CC(C(=O)Nc1ccccn1)(C3)C2 | 0.332
29 | O=C(N/N=C/c1ccccc1F)NC1CCCCC1 | -0.329
30 | CS(=O)(=O)N(CC(=O)N1CCN(C(c2ccccc2)c2ccccc2)CC1)C1CCCCC1 | -0.387
31 | O=C(Nc1ccc(N2CCCC2)cc1)C(Cl)c1ccccc1 (centres undefined) | 0.0467
32 | COc1cccc2c1OCC(C(=O)NCc1ccc(Cl)cc1Cl)=C2 | -0.437
33 | O=C(O)c1cccc(S(=O)(=O)NCC2CCCO2)c1 (centres undefined) | 0.0635
34 | CC1=CC(C)(C)N(C(=O)CSc2nnc(N)s2)c2ccccc21 | -0.424
35 | O=C(/C=C/c1ccc(Cl)cc1Cl)c1cccnc1 | 0.344
36 | CCOC(=O)C(NC(=O)c1ccccc1)(N1CCCC1=O)C(F)(F)F (centres undefined) | 0.0628
37 | O=C(c1cccc(C(F)(F)F)c1)N1CCC(O)(CS(=O)(=O)Cc2ccccc2Cl)CC1 | 0.185
38 | Cc1cccc(CSc2ccc(-c3ccco3)nn2)c1 | 0.846
39 | Cc1nnsc1NC(=O)OCC(C)C | -0.582
40 | C=C(C)C1CCC(C)=C1COC(=O)Nc1ccccc1 (centres undefined) | -0.437
41 | Cc1ccc(N(CC(N)=O)C2SC(=O)N(Cc3ccccc3)C2=O)cc1 (centres undefined) | 0.0113
42 | CCCCNC(=O)/C(C#N)=C/c1ccc2c(c1)OCCO2 | 0.0207
43 | COc1ccccc1NC(=O)COc1ccccc1 | 0.137
44 | c1csc(-n2nc3ccccc3n2)c1 | 0.0592

Row | Structure (SMILES) | z-score
45 | CCN1CCN(CC(=O)N/N=C/c2ccc(F)cc2F)CC1 | -0.212
46 | CCc1ccccc1N1CSC2=C(C#N)C(c3cc(OC)c(OC)cc3OC)CC(=O)N2C1 (centres undefined) | -0.506
47 | Cc1cc(SCC(=O)N/N=C/c2ccc(O)c(O)c2)c(C)cc1Br | -0.162
48 | CCOC(=O)N1CCC(NC(=O)CCS(=O)(=O)c2ccc3c(c2)CCN3C(C)=O)CC1 | 0.000338
49 | CC(=O)NC(c1cccc([N+](=O)[O-])c1)c1c(OC(C)=O)ccc2ccccc12 (centres undefined) | -0.117
50 | COc1ccc(/C=N/OCC(=O)N=Nc2c(O)[nH]c3ccc(Br)cc23)cc1OC | -0.183
51 | Cc1ccc(C(=O)Nc2ccc(Oc3ccc(C(=O)O)c(C(=O)O)c3)cc2)cc1C | 0.184
52 | COc1ccc(N=Cc2c(O)c3ccccc3oc2=O)cc1 | -0.209
53 | Cc1ccc2c(c1)[nH]c1c(=O)n(CCN3CCNCC3)cnc12 | 0.907
54 | O=C(COC(=O)c1cn(-c2ccccc2)nc1-c1ccc(F)cc1)Nc1ncc(Cl)cc1Cl | 0.0446
55 | COc1ccc(N(C(=O)C(C)C)S(=O)(=O)c2cccc3cccnc23)cc1 | -0.207
56 | COC(=O)c1c(-n2c(C)cc(C=O)c2C)sc2c1CCCC2 | -0.627
57 | C=CCN1C(=O)/C(=C/c2ccc(OC)cc2)S/C1=N/c1nccs1 | -0.219
58 | CCOC(=O)C1=C(CSc2nc(-c3ccccc3)ccc2C#N)OC(N)=C(C#N)C1c1ccccc1 (centres undefined) | 2.03
59 | CC(C)C(c1nnnn1C1CCCC1)N1CCCc2ccccc21 (centres undefined) | -0.471
60 | S=c1[nH]nc(-c2ccco2)n1C1CCCCC1 | -0.0951
61 | COc1cc2c(cc1OC)CN(CC(=O)Nc1ccc3c(c1)OCO3)CC2 | 0.142
62 | COc1ccc(C(=O)C(OC(=O)CNC(=O)c2ccco2)c2ccccc2)cc1 (centres undefined) | -0.387
63 | Cc1ccc(Cl)c(OC(=O)c2nn(C(C)C)c(=O)c3ccccc23)c1 | 0.19
64 | Cc1cc(Cl)ccc1OCc1nc(-c2ccc(O)cc2)n[nH]1 | 0.667
65 | COCC(C)n1c(C)cc(C(=O)CN2C(=O)NC(Cc3c[nH]c4ccccc34)C2=O)c1C (centres undefined) | 0.124
66 | Cc1ccc(C)c(N2CCN(C(=O)CCCOc3cc(=O)n(C)c4ccccc34)CC2)c1 | -0.499

Row | Structure (SMILES) | z-score
67 | COc1ccc(CC(=O)n2nc(-c3ccccc3)nc2NCc2ccco2)cc1 | 0.156
68 | COC(=O)c1ccc(NC(=O)Nc2ccc(C)cc2)cc1 | -0.177
69 | Cc1c(NC(=O)CC(C)C)c(=O)n(-c2ccccc2)n1C | -0.124
70 | COc1cccc(-c2nnn(CCc3nn[nH]n3)n2)c1 | -0.296
71 | O=C(NC1CCCCC1)C(c1ccc2ncccc2c1)N(Cc1ccc(F)cc1)C(=O)c1cccs1 (centres undefined) | -1.37
72 | CCC(=O)N1CCc2cc(S(=O)(=O)NC(C(=O)NCc3ccc(C)cc3)C(C)C)ccc21 (centres undefined) | -0.0271
73 | O=C(CSc1nc2nc3c(cc2c(=O)n1-c1ccccc1)CCCC3)Nc1cccc2ccccc12 | -0.235
74 | CC(=C1C(=O)c2ccccc2C1=O)N1CCN(c2ccccn2)CC1 | -0.168
75 | Cc1sc(NC(=O)CSc2nnc(COc3ccccc3)n2C)c(C#N)c1C | -0.0357
76 | Cc1cc(C)cc(-n2nnnc2SCC(=O)Nc2nc(-c3ccc(Cl)cc3)cs2)c1 | -0.402
77 | Cc1ccc(C)c(OC(=O)c2ccncc2)c1 | 0.332
78 | CCCCOc1ccc(S(=O)(=O)n2c(C)nc3ccccc32)cc1 | 0.0747
79 | CC(=O)Nc1ccc(C(=O)NNC(=O)CCc2ccccc2)cc1 | -0.185
80 | O=C(Nc1ccc2c(c1)CCC2)c1ccc(F)c(S(=O)(=O)N2CCOCC2)c1 | 0.196
81 | COC(=O)c1cc(C)sc1NC(=O)C1CC(=O)NN1Cc1ccccc1 (centres undefined) | -0.194
82 | Cc1ccc2oc(=O)n(Cc3ccccc3OC(C)C)c2c1 | -0.597
83 | COc1cc(/C=N/NC(=S)Nc2cccc(C(=O)O)c2)ccc1O | -0.08
84 | O=C(NNS(=O)(=O)c1ccc(Cl)cc1)c1sccc1-n1cccc1 | 0.249
85 | Oc1c(Cl)cc(Cl)cc1C(C#Cc1ccccc1)N1CCOCC1 (centres undefined) | -0.0165
86 | COc1cccc(CN2C(=O)CN(C3CCCCC3)C(=O)C2c2ccc(F)cc2)c1 (centres undefined) | -0.68
87 | C/C(=N\NC(=O)c1nc(C)cc(C)n1)c1ccccc1 | 0.424
88 | CC(C)CCNC(=O)C(c1ccco1)N(CC1CCCO1)C(=O)Cn1nnc2ccccc21 (centres undefined) | -0.844

Row | Structure (SMILES) | z-score
89 | Cc1cc(C)c2c(N)c3ccccc3nc2n1 | -0.0162
90 | COc1ccc(/C=C/C(=O)c2sc(-c3ccccc3)nc2C)cc1 | 0.276
91 | Cc1ccc2nc3c(cc(C(=O)NCC4CCCO4)c(=N)n3CCCOC(C)C)c(=O)n2c1 (centres undefined) | -0.201
92 | COc1cc(C(=O)N2CCN(C(=O)c3ccco3)CC2)cc(OC)c1OC | -0.34
93 | CC1(C)Cc2nc3[nH]c(=S)n(-c4ccccc4)c(=O)c3cc2CO1 | -0.126
94 | O=C1CC(c2ccc(F)cc2)Sc2ccccc2N1 (centres undefined) | -0.241
95 | O=C(/C=C/C=C/c1ccccc1)CC1(O)C(=O)N(CCc2ccccc2)c2ccccc21 (centres undefined) | -0.052
96 | O=C(CSc1ccc(C(F)(F)F)cc1[N+](=O)[O-])Nc1ccc2ccccc2c1 | -0.315
97 | Cn1c(CCC(=O)Nc2ccc(N3CCOCC3)cc2)nc(=O)c2ccccc21 | 0.118
98 | CCOc1ccc(OCCOCCN2CCOCC2)cc1 | 0.413
99 | O=c1c2cc(N3CCOCC3)ccc2[nH]c(=S)n1Cc1cccc(Cl)c1 | 0.348
100 | CCOc1ccc(NC(=O)[C@@H](NC(=O)c2ccccc2Br)C(C)C)cc1 | 1.11
101 | COc1ccc(CN(C)C2CCCCC2)c(C)c1C | 0.366
102 | COc1ccc(CC(=O)Nc2cc(=O)n(C)c(=O)n2C)cc1 | 2.78
103 | CCOC(=O)C1CCN(c2ncnc3c2cnn3-c2ccc(Cl)cc2)CC1 | -0.452
104 | CC(=O)c1ccc(NC(=O)CN2CCN(c3ncccn3)CC2)cc1 | -0.451
105 | O=C(COc1cccc2c1CCN(Cc1ccc(Br)cc1)C2=O)NCc1ccco1 | -0.582
106 | CCc1cccc2c(C#N)cn(CCOc3ccccc3OC)c12 | -0.0933
107 | C(=N\Nc1ccc(-n2ccnc2)nn1)/c1ccccc1 | -0.435
108 | CCn1c(-c2ccccc2Cl)nn(CC(=O)NCCc2ccccc2)c1=S | -0.24
109 | Cc1ccc(Nc2oc(C)nc2C#N)cc1 | 0.594
